The whole screen tested about 310,000 compounds, of which about 14,000 (4.5%) showed an effect of 50% or more. The effect is printed as a negative number. The list shows a part of the results.
Each molecule was assayed against human ether-à-go-go-related gene (hERG) potassium channel (human, UniProt Q12809) (assay: primary screen, population patch clamp on CHO cells stably expressing hERG).
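Note: peak tail current of the secondary pulse compared with the same well before compound.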

Chain of human ether-à-go-go-related gene (hERG) potassium channel (Q12809 whole entry, looked up): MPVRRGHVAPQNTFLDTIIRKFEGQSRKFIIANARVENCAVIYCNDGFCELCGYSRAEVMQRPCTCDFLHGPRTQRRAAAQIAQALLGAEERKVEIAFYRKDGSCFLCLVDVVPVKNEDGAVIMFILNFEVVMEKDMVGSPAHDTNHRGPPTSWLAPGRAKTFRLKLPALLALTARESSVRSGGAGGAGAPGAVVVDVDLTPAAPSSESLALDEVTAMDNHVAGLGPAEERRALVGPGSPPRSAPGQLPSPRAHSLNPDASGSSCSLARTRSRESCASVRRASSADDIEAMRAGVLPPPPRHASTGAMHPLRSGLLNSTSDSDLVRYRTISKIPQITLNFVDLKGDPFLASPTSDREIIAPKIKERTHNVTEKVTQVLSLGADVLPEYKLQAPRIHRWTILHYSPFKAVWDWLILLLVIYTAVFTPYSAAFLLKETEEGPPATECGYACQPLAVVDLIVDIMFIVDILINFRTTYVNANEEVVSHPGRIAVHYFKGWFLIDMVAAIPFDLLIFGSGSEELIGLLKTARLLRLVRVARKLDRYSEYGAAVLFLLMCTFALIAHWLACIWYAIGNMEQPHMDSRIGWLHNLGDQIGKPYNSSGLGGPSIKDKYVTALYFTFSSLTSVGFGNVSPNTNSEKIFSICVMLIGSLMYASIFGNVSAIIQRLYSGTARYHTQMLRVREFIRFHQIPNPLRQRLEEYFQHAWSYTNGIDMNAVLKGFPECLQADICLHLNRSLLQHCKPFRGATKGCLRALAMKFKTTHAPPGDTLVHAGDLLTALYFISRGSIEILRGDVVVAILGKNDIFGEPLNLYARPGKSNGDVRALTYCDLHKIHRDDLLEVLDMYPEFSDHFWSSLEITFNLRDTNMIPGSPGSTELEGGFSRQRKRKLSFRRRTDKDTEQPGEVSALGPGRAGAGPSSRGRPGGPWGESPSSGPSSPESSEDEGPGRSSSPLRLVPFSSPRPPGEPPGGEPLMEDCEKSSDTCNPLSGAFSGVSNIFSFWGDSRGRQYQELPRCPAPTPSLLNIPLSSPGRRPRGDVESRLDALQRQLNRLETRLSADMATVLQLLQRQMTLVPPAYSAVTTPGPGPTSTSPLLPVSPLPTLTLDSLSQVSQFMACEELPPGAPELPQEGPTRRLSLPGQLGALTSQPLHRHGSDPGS

Compound | hERG current change (%, negative = inhibition) at 10uM
Cc1cc(C(=O)CC#N)c(C)n1-c1c(C)n(C)n(-c2ccccc2)c1=O | 15.4%
Cc1ccccc1N(Cc1ccccc1F)S(C)(=O)=O | -8.54%
Clc1ccc2nc(N3CCCCC3)sc2c1 | 8.89%
CC(Oc1ccccc1)C(=O)NC1CCN(Cc2ccccc2)CC1 (centres unmarked) | -26.8%
COC(=O)c1c(NC(=O)CN2CCN(C(=O)c3ccco3)CC2)c2cc(C)ccc2n1C | -31.9%
COC(=O)Cc1cc(OC)c(OC)cc1S(=O)(=O)N(C)C | 38.5%
S=C1NC2(CCCCC2)N=C1c1ccccc1 | 10.2%
Cc1ccc(NC(=S)Nc2cccnc2)c(S(=O)(=O)N2CCCCC2)c1 | -3.48%
Cc1cccc(C)c1OCc1cc(C(=O)N2CCC(c3ccccc3)CC2)no1 | -1.95%
CN(C1CCCCC1)S(=O)(=O)c1ccc(=S)[nH]c1 | 17.4%
CCCCCCSC1=C(C#N)C(c2ccccc2)CC(=O)N1 (centres unmarked) | -2.01%
O=C(NCc1cc(C(F)(F)F)cc(C(F)(F)F)c1)C1CC(c2ccccc2[N+](=O)[O-])=NO1 (centres unmarked) | -18.6%
CCOCCCNC(=O)C1CCCN(S(=O)(=O)c2ccc(-n3cnnn3)cc2)C1 (centres unmarked) | -32.6%
CCN(CC)S(=O)(=O)c1cc(Br)ccc1OC | -0.441%
CCOC(=O)c1cnc(SCC(=O)N2CCN(c3ccccc3)CC2)nc1N | -28.8%
COc1ccccc1NC(=O)CSc1n[nH]c(-c2cccnc2)n1 | 7.07%
O=C(CNC(=O)c1ccc(Br)o1)OCc1ccc(Br)cc1 | -8.22%
CCOc1ccc(N(CC(=O)NCc2ccc(OC)cc2)C(=O)CCC(=O)Nc2nccs2)cc1 | 8.55%
COc1ccccc1N1CCN(CCN2C(=O)CC3(CCCC3)CC2=O)CC1.Cl | -16.9%

Compound | hERG current change (%, negative = inhibition) at 10uM
CC(C)(C)c1ccc(NC(=O)Nc2ccc(F)cc2)cc1 | 19%
Cc1ccc(NC(=O)CCl)cc1S(=O)(=O)N1CCCCCC1 | -49.7%
Cc1ccc(N2CCN(/N=C/c3cccnc3)CC2)cc1 | -7.29%
CCc1nn(C(C)C(=O)N2CCc3ccccc3C2)c(=O)c2cc3occc3n12 (centres unmarked) | -23.1%
COc1ccc(CCNCC(O)COc2ccc(Cl)cc2)cc1OC.Cl (centres unmarked) | -72.1%
CCC(C)[C@H](N)C(=O)NCC1CCC(C(=O)N[C@@H](Cc2ccccc2)C(=O)O)CC1.Cl (some centres unmarked) | 18.3%
S=C(c1ccc(OCc2ccccc2)cc1)N1CCCC1 | 11.9%
NS(=O)(=O)c1ccc(CNC(=O)CSc2ccccc2)cc1 | 14.5%
Cc1cc(Br)ccc1SCC(=O)OCC(=O)Nc1ncc(C(F)(F)F)cc1Cl | 13.7%
COc1ccc(CSc2cccc3cccnc23)cc1[N+](=O)[O-] | 1.59%
CC(C)(C)NC(=O)CCCCCCCC(=O)NC(C)(C)C | 39.1%
Nn1c(SCC(=O)NCc2ccc3c(c2)OCO3)nnc1C1CC1 | 10.2%
Cc1ccc(Cl)cc1N1CCN(C(=O)C2CCN(c3nnc(-n4cccc4)s3)CC2)CC1 | -16.4%
CC(C)(C)c1ccc(C(=O)NCC(=O)OCN2C(=O)c3ccccc3C2=O)cc1 | -8.89%
CC(CCc1ccccc1)NC(=O)COC(=O)c1ccccc1Br (centres unmarked) | -1.76%
O=C1c2ccccc2C(=O)N1CCC#Cc1ccc2cc(C3(O)CCCCC3)oc(=O)c2c1 | -4.6%
Cc1ccc(C(=O)Nc2cccc(N3C(=O)C4CCC(C)CC4C3=O)c2)cc1 (centres unmarked) | -2.53%
COC(=O)[C@@H]1C[C@@]2(O)[C@H](O)[C@H](O)[C@H](O)C[C@H]2N1Cc1ccccc1OS(=O)(=O)c1ccc(C)cc1 | -5.21%
Cc1ccc(-c2csc(NC(=O)c3c(C)noc3C)n2)cc1 | -31.7%

Compound | hERG current change (%, negative = inhibition) at 10uM
CCOc1ccccc1NC(=O)CCC(=O)O | -13.9%
O=C1OC(c2ccc(Br)cc2)=N/C1=C\N1CCCCC1 | 22%
COc1ccccc1CNc1cc(-c2ccccc2)ccc1OC | 5.86%
Cc1cccc(OCCNC(=O)CCNS(=O)(=O)c2ccc3ccccc3c2)c1 | -14.8%
Cc1ccc(-c2cc(C(F)F)n3ncc(C(=O)NCc4ccco4)c3n2)cc1 | -0.82%
CCN1C(=O)CC(NNC(=O)c2ccccc2)C1=O (centres unmarked) | -20.1%
CCCn1c(N)c(N(CCOC)C(=O)c2cc(S(=O)(=O)N3CCCCCC3)ccc2OC)c(=O)[nH]c1=O | -8.95%
O=C(NCCc1ccccc1)C1CCCN1C(=O)Nc1ccc(F)cc1 (centres unmarked) | 0.314%
Cc1ccc(C(=O)COC(=O)c2cccc(N3C(=O)c4c(C)nc5ccccc5c4C3=O)c2)cc1C | -3.35%
O=C1c2ccccc2C(=O)N1CCc1nn[nH]n1 | 17%
O=C(Nc1ccon1)c1csc2ccccc12 | 4.41%
COc1ccc(CCCc2n[nH]c(=S)o2)cc1 | 13.7%
CC(OC(=O)C1=Cc2ccccc2OC1)C(=O)NCc1ccco1 (centres unmarked) | -26.3%
CCc1nc(C)cn1S(=O)(=O)c1ccc([N+](=O)[O-])cc1 | 1.04%
Cc1ccc(N(C(=O)Cn2nnc3ccccc32)C(C(=O)NCc2ccccc2)c2ccccn2)cc1 (centres unmarked) | -45.5%
CC1CCCN(C(=O)COC(=O)c2ccc(=O)n(Cc3ccccc3)n2)C1 (centres unmarked) | -2.06%
CCN(CCn1cccn1)C(=O)CCc1nnc(Cc2c[nH]c3ccccc23)o1 | 0.476%
CCCn1c(/N=C/c2ccccc2O)nc2ccccc21 | 13.6%

From article PMC4336329 (PLoS ONE, 2015)
